Measurements reported in the GPR68 mutational scans of Howard et al. (2025).
Scores whose standard error is large were omitted. Not listed are two conditions whose scores span a narrow range. Read del as a deletion of the residues named and ins as an insertion between two positions. For some assays here: The concentration of ogerin is not given here.

B1: GPR68, Q15743 (parent)
chain: MGNITADNSSMSCTIDHTIHQTLAPVVYVTVLVVGFPANCLSLYFGYLQIKARNELGVYLCNLTVADLFYICSLPFWLQYVLQHDNWSHGDLSCQVCGILLYENIYISVGFLCCISVDRYLAVAHPFRFHQFRTLKAAVGVSVVIWAKELLTSIYFLMHEEVIEDENQHRVCFEHYPIQAWQRAINYYRFLVGFLFPICLLLASYQGILRAVRRSHGTQKSRKDQIQRLVLSTVVIFLACFLPYHVLLLVRSVWEASCDFAKGVFNAYHFSLLLTSFNCVADPVLYCFVSETTHRDLARLRGACLAFLTCSRTGRAREAYPLGAPEASGKSGAQGEEPELLTKLHPAFQTPNSPGSGGFPTGRLA

Legend:
[1] = variants of: B1; experiment: cAMP reporter score (Enrich2 score, wild type = 0); higher = more signal; HEK293T, FACS bins
[2] = variants of: B1; experiment: surface expression score (Enrich2 score, wild type = 0); higher = more signal; HEK293T, FACS bins

Variant | cAMP reporter score ([1]; pH 5.5) | cAMP reporter score ([1]; pH 6) | cAMP reporter score ([1]; pH 6, modulator: ogerin) | cAMP reporter score ([1]; pH 6.5, modulator: ogerin) | surface expression score [2]
N104_I105insG | -0.65 | -0.284 | -1.31 | -0.149 | -1.21
N104_I105insGS | -3.13 | – | -2.21 | -0.514 | -2.55
Y106_I107insGS | -0.407 | -0.224 | – | – | -1.09
Y106_S108del | -1.9 | -1.01 | -1.65 | -1.43 | -2.08
MGNITADNSSMSCTIDHTIHQTLAPVVYVTVLVVGFPANCLSLYFGYLQIKARNELGVYLCNLTVADLFYICSLPFWLQYVLQHDNWSHGDLSCQVCGILLYENIYCSVGFLCCISVDRYLAVAHPFRFHQFRTLKAAVGVSVVIWAKELLTSIYFLMHEEVIEDENQHRVCFEHYPIQAWQRAINYYRFLVGFLFPICLLLASYQGILRAVRRSHGTQKSRKDQIQRLVLSTVVIFLACFLPYHVLLLVRSVWEASCDFAKGVFNAYHFSLLLTSFNCVADPVLYCFVSETTHRDLARLRGACLAFLTCSRTGRAREAYPLGAPEASGKSGAQGEEPELLTKLHPAFQTPNSPGSGGFPTGRLA [I107C] | 0.383 | -1.74 | -1.34 | -0.232 | -2.39
MGNITADNSSMSCTIDHTIHQTLAPVVYVTVLVVGFPANCLSLYFGYLQIKARNELGVYLCNLTVADLFYICSLPFWLQYVLQHDNWSHGDLSCQVCGILLYENIYDSVGFLCCISVDRYLAVAHPFRFHQFRTLKAAVGVSVVIWAKELLTSIYFLMHEEVIEDENQHRVCFEHYPIQAWQRAINYYRFLVGFLFPICLLLASYQGILRAVRRSHGTQKSRKDQIQRLVLSTVVIFLACFLPYHVLLLVRSVWEASCDFAKGVFNAYHFSLLLTSFNCVADPVLYCFVSETTHRDLARLRGACLAFLTCSRTGRAREAYPLGAPEASGKSGAQGEEPELLTKLHPAFQTPNSPGSGGFPTGRLA [I107D] | -1.64 | – | -2.97 | -0.68 | -2.46
